Test results published in PubChem BioAssay AID588501 (NMMLSC, 2011).
Among all 360,000 compounds or so, about 420 (0.12%) were called active. Inconclusive means that the source gave no clear call. Such entries were picked first, then a sample of the others. Cut-off read from the data, not from the text of the source: active = inhibition above about 30%; inconclusive = no clear call, values can overlap the other calls; inactive = below that.

target: Lethal factor (Bacillus anthracis) (UniProt P15917); experiment: anthrax lethal factor cleavage blockers – biochemical, multiplex microsphere, MLPCN library, primary screen (AID 588501); conditions: multiplex microsphere protease cleavage assay, LF; at 10 µM; stronger effect = higher value; note: plate controls were buffer without enzyme for full effect and enzyme alone for no effect
Chain of UniProt P15917 (P15917 whole entry, looked up): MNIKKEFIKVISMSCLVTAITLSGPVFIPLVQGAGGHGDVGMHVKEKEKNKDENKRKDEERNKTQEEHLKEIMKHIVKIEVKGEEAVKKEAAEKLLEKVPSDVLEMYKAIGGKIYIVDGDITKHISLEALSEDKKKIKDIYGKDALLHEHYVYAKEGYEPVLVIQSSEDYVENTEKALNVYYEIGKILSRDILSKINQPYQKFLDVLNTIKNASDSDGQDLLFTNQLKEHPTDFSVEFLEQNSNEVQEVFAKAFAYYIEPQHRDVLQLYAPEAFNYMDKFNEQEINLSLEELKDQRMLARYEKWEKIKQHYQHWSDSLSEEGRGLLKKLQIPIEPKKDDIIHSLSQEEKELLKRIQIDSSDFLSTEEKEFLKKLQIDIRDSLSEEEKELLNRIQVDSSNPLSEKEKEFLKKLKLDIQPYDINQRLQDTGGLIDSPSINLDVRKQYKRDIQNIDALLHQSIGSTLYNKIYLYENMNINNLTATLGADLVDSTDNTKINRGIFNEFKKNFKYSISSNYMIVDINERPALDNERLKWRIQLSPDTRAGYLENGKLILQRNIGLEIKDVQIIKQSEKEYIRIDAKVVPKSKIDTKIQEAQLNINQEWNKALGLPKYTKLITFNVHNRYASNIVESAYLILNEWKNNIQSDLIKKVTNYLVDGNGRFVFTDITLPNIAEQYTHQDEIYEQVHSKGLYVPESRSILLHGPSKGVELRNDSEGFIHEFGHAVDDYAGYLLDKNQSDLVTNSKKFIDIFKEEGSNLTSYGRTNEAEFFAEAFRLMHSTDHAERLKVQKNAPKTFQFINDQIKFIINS

Compound | inhibition
COc1ccc2sc(/C=C/c3ccccc3O)[n+](C)c2c1 | inconclusive: 9.1%
O=[N+]([O-])/C=C\c1ccc(N2CCCC2)c(F)c1 | active: 32%
CCCCOc1ccc(-c2nnn(CC(=O)NCCc3c[nH]c4ccccc34)n2)cc1 | inactive: -3.1%
O=C(O)C1=C[C@H](c2ccc3c(c2)OCO3)C[C@H](OCc2ccc(CO)cc2)O1 | inactive: -0.2%
CNc1nc(CCN2C(=O)c3ccccc3C2=O)cs1 | inconclusive: -19%
Cc1cc(Cl)c2oc(C(=O)NCCC3CCCCO3)c(C)c2c1 (stereo not given) | inconclusive: 2.1%
Cc1csc2c(=O)sc(NC(=O)c3cccs3)nc12 | inconclusive: -4.8%
OC(CNc1ccccc1)Cn1ccc2ccccc21 (stereo not given) | inactive: -3.9%
O=S(=O)(CCN1C=CC(C(F)(F)F)=NCC1)c1ccc(F)cc1 | inconclusive: -23.6%
Oc1oc(-c2ccccc2)nc1C=NCc1ccccc1 | inactive: -0.5%
Cc1cc(C)cc(NC(=O)CSc2nc(=O)n3cc(C)ccc3n2)c1 | inconclusive: 2%
CC1CCCC(NC(=O)c2cc(-c3ccncc3)nc3ccccc23)C1C (stereo not given) | inconclusive: 1.5%
CC(C)OCCCNC(=O)c1c(N)n(/N=C/c2cccs2)c2nc3ccccc3nc12 | inconclusive: 19.7%
CCN(CC)c1ccc(C=Nc2ccccc2C)c(O)c1 | active: 33.5%
N#CC1=C(N)Oc2c(oc(CO)cc2=O)C1c1ccccc1[N+](=O)[O-] (stereo not given) | inconclusive: 5.9%
COC(=O)c1ccc(OC(=O)CN2C(=O)c3ccccc3C2=O)cc1 | active: 38.2%
Cc1cc(C)cc(NC(=O)CSc2nnc(CNC(=O)c3ccco3)n2C)c1 | inconclusive: -1.2%
O=C(Nc1ccc(NS(=O)(=O)c2ccccc2)cc1)c1ccccc1 | inactive: -12.2%
CCOc1ccc(N(CC(=O)NCc2cccc(OC)c2)S(=O)(=O)c2c(C)noc2C)cc1 | inconclusive: -27.9%
CCOc1ccc2[nH]cc(-c3csc(N)n3)c2c1 | inconclusive: -55.5%
CC(NC(=O)COC(=O)c1cc2ccccc2cc1O)c1ccccc1 (stereo not given) | inconclusive: 9.4%
Cc1ccc(C2CC(C(F)(F)F)n3ncc(C(=O)NCc4ccco4)c3N2)cc1 (stereo not given) | inconclusive: 14.8%
CCC(C)(C)C1CCC(=NNS(=O)(=O)c2ccc(C)c([N+](=O)[O-])c2)CC1 (stereo not given) | inactive: -2.1%

Compound | inhibition
CN(C)C(=O)CSc1nnc([C@H](Cc2c[nH]c3ccccc23)NC(=O)OC(C)(C)C)o1 | inconclusive: -14.5%
CCCCC1CC2=C(C(=O)OC(C)(C)O2)C(c2ccc3ccccc3c2)O1 (stereo not given) | inactive: -0.6%
O=C(c1ccccc1)N1CCCC(C(=O)N2CCN(c3ccccc3)CC2)C1 (stereo not given) | active: 33.8%
CC1CCN(C(=O)c2ccc(NS(=O)(=O)c3ccccc3)cc2)CC1 | inconclusive: 4.8%
O=C(CN1CCOCC1)Nc1scc2c1c(=O)oc1ccccc12 | inconclusive: -13.9%
Cc1cccc(NC(=O)CN(C)S(=O)(=O)c2cccc3nsnc23)c1C | inactive: 3.5%
COc1ccc(OC)c(N=c2oc3cc(O)ccc3cc2C(N)=O)c1 | inconclusive: 11.1%
Cc1ccc(NC(=O)c2cc3ccccc3o2)nc1 | inconclusive: 1.4%
CN(CC(=O)Nc1ccncc1)S(=O)(=O)c1ccc(Br)cc1 | inactive: -3.9%
Cc1cccc(CSCc2ccc(C(=O)NC3CCCC3)o2)c1 | inactive: 3.6%
Cc1ccccc1CN1C2=NCCN2c2ccccc21 | inactive: -0.9%
CN(C)C=Nc1c(Br)cc(Br)c2nonc12 | inactive: 6.4%
COc1ccc(-c2cn3c(C)c(C(=O)Nc4cccc(NC(C)=O)c4)sc3n2)cc1 | inconclusive: -22.2%
Cc1cccc(N2CC(C(=O)NC3CCCCCC3)CC2=O)c1C (stereo not given) | inconclusive: 5.1%
Cc1nc([N+](=O)[O-])c(Sc2nc3ccccc3[nH]2)n1Cc1ccccc1 | inactive: -3.4%
COc1ccccc1Oc1coc2c(CN3CCN(C)CC3)c(O)ccc2c1=O | inactive: -1.4%
O=C(N/N=C/c1ccncc1)c1cccs1 | inactive: 24.5%
O=C(C1COc2ccccc2O1)N1CCN(c2ccccn2)CC1 (stereo not given) | inconclusive: -0.4%
CCC(C)N1C(=O)/C(=C/c2c(NCCCOC(C)C)nc3c(C)cccn3c2=O)SC1=S (stereo not given) | inconclusive: 7.7%
O=C(Nc1ccc2nc(-c3cccs3)c(-c3cccs3)nc2c1)NC1CC1 | active: 54.5%
CC(OC(=O)C1CC(=O)N(Cc2ccccc2)C1)C(=O)Nc1ccc(F)cc1Cl (stereo not given) | inconclusive: -2.2%
Cc1ccc(-c2nnc(NC(=O)C3=COCCO3)o2)c(C)c1 | inconclusive: -3.8%
C=CCOc1ccc(/C=C/C(=O)OCC(=O)N(C)C2CCS(=O)(=O)C2)cc1 (stereo not given) | inactive: -0.9%

Compound | inhibition
CN1CCN(S(=O)(=O)Cc2ccc(Cl)cc2)CC1 | inconclusive: 5.7%
Cc1cc(NC(=O)COC(=O)c2nccnc2N)n(-c2ccccc2)n1 | inconclusive: 1.3%
c1ccc2[nH]c(CSc3nccs3)nc2c1 | inconclusive: 11%
CC1CCN(C(=O)COC(=O)c2ccc(N3CCCC3=O)cc2)CC1 | inconclusive: -1.5%
O=C(CN1C(=O)NC2(CCCCC2)C1=O)N1CCN(S(=O)(=O)c2ccc(F)c(F)c2F)CC1 | inconclusive: 0.1%
NC(=O)Cn1nc(-c2ccccc2)nc1-c1ccccc1 | active: 31%
Cc1nn(CC(=O)NCCc2cccs2)c(=O)c2cc3ccccc3n12 | active: 33.7%
CC1=[N+](C)c2ccc3ccccc3c2C1(C)C | inconclusive: -4%
COc1ccccc1C(=O)NCCn1ccc2ccccc21 | active: 58.6%
CCN(CC)CC(=O)N1c2ccccc2Oc2c(c(=O)n(C)c(=O)n2C)C1c1cccc([N+](=O)[O-])c1 (stereo not given) | inactive: -10.7%
COc1ccc(-c2nc(C#N)c(NCC3CCCO3)o2)cc1 (stereo not given) | inconclusive: -6.4%
CCC(=O)N1Cc2cc(C(=O)NCc3cccc(F)c3)nc(-c3cccc(C4=CCCC4)c3)c2[C@H]1CCO | inactive: -8.3%
O=C(Nc1ncc(Cc2ccccc2)s1)C1COc2ccccc2O1 (stereo not given) | inconclusive: -10.5%
Cc1noc(NS(=O)(=O)c2ccc(NC(=O)C(F)(F)C(F)(F)C(F)(F)F)cc2)c1C | inconclusive: -10.1%
Cc1cc(=O)c(C(=O)Nc2cccc(C(=O)NC3CC3)c2)nn1-c1ccccc1 | inactive: -4.8%
O=C(NCCC1CCCCN1S(=O)(=O)c1ccc(Cl)cc1)C(=O)NCCN1CCOCC1 (stereo not given) | inconclusive: 2.9%
Cc1nn(-c2ccccc2)c2sc(-c3n[nH]c(=S)o3)cc12 | inconclusive: -6.1%
CCN(CC)c1ccc(/C=C2\C(=O)c3ccc(C(=O)O)cc3C2=O)cc1 | active: 37.3%
CCCn1c(=O)n(C)c(=O)c2c(SC(C)C(=O)NCC3CCCO3)nc(CC(C)C)nc21 (stereo not given) | inactive: -9.8%
CC(C)(C)C(=O)Nc1ccc(Oc2ccc3c(c2)C(=O)N(c2ccc(O)cc2)C3=O)cc1 | inconclusive: -0.4%
COc1ccc(C(=O)OCC(=O)c2c[nH]c3ccccc23)cc1OC | active: 39.2%
COc1ccccc1NS(=O)(=O)c1cccc(C(=O)N/N=C/c2ccc([N+](=O)[O-])o2)c1 | inactive: 1.3%
N#CC(C#N)=c1ccc2c(c1)N1C(c3ccccc3)=CC(c3ccccc3)C3CCCCC31N=2 (stereo not given) | inconclusive: -14.8%

Compound | inhibition
CCCN(C(=O)C1CSC2(C)CCC(=O)N12)c1c(N)n(Cc2ccccc2)c(=O)[nH]c1=O (stereo not given) | inconclusive: -8.8%
O=C(COC(=O)/C=C/c1ccc(C(F)(F)F)cc1)NC1CC1 | inconclusive: -5.5%
Cc1cc(C)cc(OCC(=O)Nc2ccc(N3CCCCC3)cc2)c1 | inconclusive: -20.5%
Cn1c(Cc2cccc3ccccc23)nnc1SCC(=O)N1CCN(c2ccccc2)CC1 | inconclusive: -6.2%
Cc1cccc(NC(=O)CNC(=O)c2sc3ccccc3c2Cl)n1 | inconclusive: 2.8%
CN1/C(=C\C(=O)Nc2ccc(Cl)cc2)C(C)(C)c2ccccc21 | inconclusive: -0.1%
CCCSc1nnc(Sc2nnnn2-c2ccccc2)s1 | inconclusive: -23.4%
O=C1CC2(CCN(C(=O)c3ccccc3F)CC2)Oc2ccccc21 | inconclusive: -2.1%
CN(Cc1ccc(OC(F)F)cc1)C(=O)c1ccc2nccnc2c1 | inconclusive: -15.7%
CCOC(=O)C1=C(COC(=O)CCOc2ccccc2C)NC(=O)NC1C (stereo not given) | inconclusive: -5%
O=C(c1cc2ccccc2o1)N1CCOCC1 | inconclusive: -111%
COc1cccc(CNC(=O)CCNC(=O)c2ccco2)c1 | inconclusive: 3.1%
Clc1ccc(CSc2nnc(-c3ccncc3)o2)c(Cl)c1 | inconclusive: -22%
O=C(CC(Cc1ccccc1)C(=O)O)NCCc1ccc2c(c1)OCO2 (stereo not given) | inconclusive: -22%
Cc1ccc(NC(=O)c2cc([N+](=O)[O-])ccc2NCc2cccnc2)cc1Cl | inconclusive: -13.1%
CCN=C1S/C(=C\c2cc(OCC)c(O)cc2Br)C(=O)N1CC | active: 30.2%
Cc1cc2ccccc2n1CCNC(=O)c1ccccc1 | inconclusive: 8.8%
Cc1ccccc1NS(=O)(=O)c1ccc2oc(=O)ccc2c1 | inactive: -8.9%
Cc1ccccc1CSc1nnc(CCCCCNC(=O)OC(C)(C)C)o1 | inconclusive: -30%
O=C(/C=C/c1ccc(Br)cc1)N1CCN(Cc2ccccc2)CC1 | inactive: -1.3%
CCn1c(SCC(=O)c2ccc3ccccc3c2)nnc1-c1cccs1 | inconclusive: -32.5%
